# Laboratory results: the supplement of paper PMC3334620
# The full ranking holds about 33,000 sequences; the median of “E-score (-0.5 to 0.5)” is about -0.017, and the highest 2% start at about 0.3. The list shows a part of the results.
# Molecular target: T1, Sut1 (UniProt P53032)
# T1 sequence: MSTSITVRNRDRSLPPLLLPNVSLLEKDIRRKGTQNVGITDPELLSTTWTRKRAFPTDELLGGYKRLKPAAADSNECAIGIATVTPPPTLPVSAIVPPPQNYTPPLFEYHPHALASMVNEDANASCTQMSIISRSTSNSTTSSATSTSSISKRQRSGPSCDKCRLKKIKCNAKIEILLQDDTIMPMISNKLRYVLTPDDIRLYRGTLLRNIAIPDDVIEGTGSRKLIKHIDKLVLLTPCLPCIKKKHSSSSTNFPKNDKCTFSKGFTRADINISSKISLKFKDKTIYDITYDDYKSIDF
# Assay: PBM E-score (8-mer binding enrichment) (E-score (-0.5 to 0.5)); higher = stronger / more preferred TF binding; most listed sequences are background and not binding sites
# Conditions: protein concentration: 200 nM; construct: GST-full length
# Method in brief: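 Masliner-normalised scans of fluorescent anti-GST signal were the basis for scoring. That signal came from GST-tagged yeast transcription factors applied at about 100-200 nM to double-stranded universal all-10-mer Agilent arrays on fresh or once-stripped slides. Each ungapped eight-base word, pooled with its reverse complement, received an E-score from the Universal PBM Analysis Suite.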
row,Sequence,PBM E-score
1,AAAACATC,-0.018
2,AACGCGTC,0.022
3,GCGAAATA,0.0555
4,CCATTCCA,-0.0844
5,CTGGGAGC,-0.19
6,AGGAGGGC,-0.321
7,GGCACCGA,0.0329
8,CTGTGGGC,-0.232
9,CGGAGACA,0.26
10,CCATACCC,-0.154
11,AAACTTCC,0.0932
12,GATATACC,0.116
13,TAGGAACA,0.0612
14,GTTCCCCA,-0.189
15,AACGCGTT,-0.183
16,GATGTGAA,0.0994
17,TAAGCTCA,-0.133
18,AAGCTCAG,0.0414
19,AAACGAAA,0.228
20,CCACACGA,-0.154
21,CGTTTGAG,-0.122
22,TGGTATAA,0.193
23,AGATATCA,0.166
24,GAACTTCC,-0.00268
25,CATAGCGC,0.025

row,Sequence,PBM E-score
1,CATAACGC,-0.00576
2,GTAATTGA,0.238
3,GACCGGGA,-0.0471
4,CTAGCTAC,-0.3
5,ATGGCAAT,-0.0138
6,GATTTACC,0.21
7,AATGTCCA,0.0363
8,CAAATTCA,0.0268
9,ACACCACT,0.162
10,CCACCCGC,-0.23
11,AACAAGCT,0.135
12,GTTTGGGA,-0.0285
13,CATCCCAC,-0.21
14,GATTCAAA,0.0792
15,CAGAGCCG,-0.0869
16,ACGCCCCG,-0.0719
17,CCTGACAC,-0.0656
18,CGGCGCCA,-0.247
19,ACTAATGG,0.214
20,GATAGTGC,-0.179
21,AAGAGGAG,-0.0252
22,ATACCTAG,0.0816
23,CACCTTTA,-0.129
24,GAGTTATC,0.237
25,AGTGTGTA,-0.137

row,Sequence,PBM E-score
1,AACATTAA,0.178
2,AGTACAGA,0.0841
3,TACCGGGA,0.229
4,CTCATCTA,0.123
5,ACACTCGT,-0.135
6,CGAATCAG,-0.0807
7,ACCGCATC,-0.00154
8,AGATCACC,0.00859
9,CGCGATTC,0.0374
10,AGCACTGG,-0.115
11,TACTACTA,0.235
12,GATCCAAA,0.0639
13,CCACTGAG,-0.197
14,AGCTCACC,-0.0857
15,ACAACCAT,0.259
16,AGTCCGAG,0.489
17,ATAACCCA,0.145
18,GATTGTCA,0.112
19,CCGTTGGA,0.0326
20,AGAGAGAG,-0.0921
21,AACCTAGC,-0.002
22,TGCGTCAA,-0.0121
23,CAATTCCC,0.072
24,CATTGCAC,-0.133
25,TCCGACGA,0.287

row,Sequence,PBM E-score
1,ACATTAAT,0.117
2,CTTCAATC,0.176
3,CGGAGGGC,-0.0475
4,ACCCTCGA,-0.27
5,AAAATGAC,0.157
6,CAAATAGA,0.0157
7,CTCCTAGA,-0.217
8,AGAACCCT,-0.185
9,AGCTGTTA,0.0604
10,GTACAAGA,-0.0428
11,AAGCTGTA,0.198
12,ATTGAGCA,-0.0233
13,CGCAGTCA,-0.147
14,ACATGACT,-0.19
15,ACCTGTGG,-0.141
16,CTATTGCA,0.118
17,ACCGTCGC,-0.0989
18,ACGCATAC,0.011
19,AGTTTCAC,0.0582
20,CGCTGGAC,-0.105
21,CAGTTCCC,-0.0933
22,ACTTCCGC,0.0793
23,AGAGTGGG,-0.176
24,CAGTTGGG,-0.207
25,ATAATCGA,-0.0627

row,Sequence,PBM E-score
1,CTCAGGAG,-0.179
2,ACGGCTGC,-0.239
3,CACCAGTG,-0.182
4,CCATCGAA,-0.125
5,CAGACTAG,-0.288
6,CACGGAGG,0.0312
7,CAAGTATA,0.0949
8,CATACGGG,-0.186
9,AGCCGTCG,-0.141
10,AGGGAAGA,-0.164
11,ACTGCGCG,-0.154
12,AAATACTG,0.0508
13,TTTAAAAA,0.145
14,GACTATTA,0.0972
15,ATAACGAT,0.0584
16,AGGGAATC,-0.223
17,ATGGATAA,0.0734
18,CATGTAGG,-0.161
19,ATGGCAGC,-0.187
20,CTCACTGC,-0.0428
21,AGGAAAAC,0.0442
22,ACGTGATG,-0.117
23,ACCACGAA,-0.0521
24,GTGGACGA,-0.0595
25,AAACAGCG,0.17

row,Sequence,PBM E-score
1,CTCTGTGA,-0.105
2,CGTACCAA,-0.0518
3,AGGTGAGA,-0.0109
4,GGCTATTA,-0.0333
5,CTAGTACA,0.132
6,ATCCGAAC,0.213
7,AGCTTTCC,0.0294
8,AGAGCCGA,0.0868
9,CAACTCAG,-0.155
10,AGATGCAT,-0.00434
11,GGATATTA,0.102
12,ACCTTACG,0.0293
13,GCAGCCCC,0.195
14,ATGGCGCG,-0.0467
15,CGTGTGCC,-0.274
16,AGGAGACC,-0.18
17,CCGTGCGC,-0.0983
18,ATGGCTAG,-0.0686
19,CATGATGC,-0.00269
20,ATAGCTTA,0.0881
21,AACGTCGG,0.0158
22,GGTAAGAA,-0.141
23,ATCCTCTA,-0.0137
24,TCGACAAA,0.213
25,GCTAGCCC,-0.172

row,Sequence,PBM E-score
1,ATTTTCAG,0.233
2,ATTCGTAG,0.0467
3,GTAAACCA,-0.063
4,CTAGCGGA,0.0881
5,CACGCGGG,-0.176
6,CGAGGCTC,-0.259
7,CTCCCCAC,-0.256
8,AGTAATGC,0.0692
9,AACCGAGA,0.195
10,GCTTCGCC,-0.104
11,CCTTATCG,0.121
12,AGGTACGC,-0.0325
13,ACGTATTC,-0.0472
14,AACGCTGG,-0.0988
15,AGCCGAAT,0.15
16,CGCTAGGC,-0.138
17,GGCCCCAA,-0.279
18,CATATCAA,0.0696
19,CAGGTATA,-0.142
20,AAGATAGA,0.0968
21,ACCAGCTG,-0.203
22,ACTTGCGG,-0.0528
23,AAGTCAGG,-0.0851
24,TACGTACA,0.0411
25,CTTGACGC,-0.169

row,Sequence,PBM E-score
1,TCGCAAGA,-0.186
2,TCCCCTAA,-0.00841
3,ACTGCTGC,-0.129
4,GTCGGAGA,0.325
5,ATCCAGAG,0.0385
6,AGTCAGCG,0.0334
7,GAACCACC,0.0336
8,GTGCAAAA,0.0548
9,AAATTCAG,0.027
10,CCATAGGA,-0.252
11,TCCAGGAA,-0.078
12,CTGCGTAA,-0.0977
13,ACCAATAA,0.102
14,CACCCAAA,-0.0808
15,CTTTTGCA,0.185
16,TAGATTCA,0.0259
17,CCCGGACA,0.354
18,ACACGCGA,-0.014
19,TAACGTAA,0.138
20,ATCCAGCC,-0.155
21,CTTATGTA,0.16
22,CGGACAGA,0.0507
23,CTTTTAAC,0.125
24,CAACTAGC,0.0249
25,GTGCGTCA,-0.079

row,Sequence,PBM E-score
1,GGTACGCA,0.0653
2,GTGCCGTA,0.051
3,CGGGTCAC,-0.208
4,AAACGGTT,-0.124
5,ACGCCTAG,-0.199
6,AGAATCGA,0.0407
7,CGTATCAG,-0.0598
8,ATTCAGAG,0.103
9,CCGAACTA,0.198
10,CACGAGAC,-0.165
11,GTCGGTCA,-0.109
12,ACCTCCAT,-0.232
13,CCCGTTCG,-0.0433
14,AGACTGAA,0.0426
15,AACTTGGT,0.0492
16,AAAGAGTT,0.173
17,AAACAACC,0.233
18,GTTAGAAA,0.0725
19,CCACGGGG,-0.12
